Results as given in US20230061378A1 (SUZHOU ALPHAMAB, published 2023).

B1: huPT42v6n15v11c-Fc (Fc fusion)
chain: QVQLVESGGGLVQPGGSLRLSCAASGYTYSDVCMGWFRQAPGKGLEGVAAIDSVGNTNYADSVKGRFTISKDNSKNTLYLQMNSLRAEDTAVYYCAAQRCLGWVPLVPHEYGYWGQGTLVTVSSQVQLVESGGGLVQPGGSLRLSCAASGYTYGSYCMAWFRQAPGKEREGVAGVDSDGTTRYADSVKGRFTISRDNSENTLYLQMNSLKPEDTAVYYCAAGVCGTGGSWYEGDAGLFMYEFAYWGQGTLVTVSS[human IgG1 Fc cut from this listing]
notes: also called huPT42n15-Fc
B2: huPT42v6n7v11-Fc (Fc fusion)
chain: QVQLVESGGGLVQPGGSLRLSCAASGYTYSDVCMGWFRQAPGKGLEGVAAIDSVGNTNYADSVKGRFTISKDNSKNTLYLQMNSLRAEDTAVYYCAAQRCLGWVPLVPHEYGYWGQGTLVTVSSQVQLVESGGGLVQPGGSLRLSCAASGYTYSSYCMGWFRQAPGKGLEGVAAIDSDGRTSYADFVKGRFTISKDNSKNTLYLQMNSLKPEDTAVYYCATEQRIGGSWYDLCGGADFGYWGQGTLVTVSS[human IgG1 Fc cut from this listing]
notes: also called huPT42n7-Fc
B3: iPT15Fc (Fc fusion)
chain: QVQLQESGGGSVQAGGSLRLSCAASGYTYGSYCMAWFRQAPGKEREGVAGVDSDGTTRYADSVKGRFTISKDNAENTLYLQMNSLKPEDTSMYYCAAGVCGTGGSWYEGDAGLFMYEFAYWGQGTQVTVSS[human IgG1 Fc cut from this listing]
notes: also called iPT15-Fe

Columns and labels:
[1] = molecular target: T1, pertussis toxin (PT) (Bordetella pertussis); assay: cell-based or functional assay
[2] = molecular target: T1, pertussis toxin (PT); assay: BLI, antibody on AHC biosensor, PTpuri 6.25-100 nM in solution
[3] = molecular target: T1, pertussis toxin (PT); assay: BLI (Octet), Fc fusion on AHC biosensor, PT 6.25-100 nM in solution, 1:1 model
[4] = molecular target: T1, pertussis toxin (PT); assay: BLI in-tandem binning on PT-biotin; competitor (Ab1, bound first): iPT22FC
[5] = molecular target: T1, pertussis toxin (PT); assay: BLI in-tandem binning on PT-biotin; competitor (Ab1, bound first): iPT15FC
[6] = molecular target: T1, pertussis toxin (PT); assay: BLI in-tandem binning on PT-biotin; competitor (Ab1, bound first): 1B7
[7] = molecular target: T1, pertussis toxin (PT); assay: BLI in-tandem binning on PT-biotin; competitor (Ab1, bound first): iPT26FC
[8] = molecular target: T1, pertussis toxin (PT); assay: BLI in-tandem binning on PT-biotin; competitor (Ab1, bound first): iPT12FC
[9] = molecular target: T1, pertussis toxin (PT); assay: cell-based or functional assay; remark: listed apart in the source
[10] = molecular target: T1, pertussis toxin (PT); assay: BLI in-tandem binning on PT-biotin; competitor (Ab1, bound first): iPT7FC
[11] = molecular target: T1, pertussis toxin (PT); assay: BLI in-tandem binning on PT-biotin; competitor (Ab1, bound first): iPT42FC
[12] = molecular target: T1, pertussis toxin (PT); assay: cell-based or functional assay; remark: listed apart in the source
[13] = molecular target: T1, pertussis toxin (PT); assay: BLI in-tandem binning on PT-biotin; competitor (Ab1, bound first): iPT35FC
[14] = molecular target: T1, pertussis toxin (PT); assay: BLI in-tandem binning on PT-biotin; competitor (Ab1, bound first): 11E6

| Binder | Minimum neutralizing concentration (CHO-K1 cells with PT toxin) [1] | Kd [2] | koff [2] | kon [2] | Kd [3] | koff [3] | kon [3] | Ab2 with Ab1/Ab2 without Ab1 [4] | Ab2 with Ab1/Ab2 without Ab1 [5] | Ab2 with Ab1/Ab2 without Ab1 [6] | Ab2 with Ab1/Ab2 without Ab1 [7] | Ab2 with Ab1/Ab2 without Ab1 [8] | Minimum neutralizing concentration (CHO-K1 cells with PT toxin) [9] | Ab2 with Ab1/Ab2 without Ab1 [10] | Ab2 with Ab1/Ab2 without Ab1 [11] | Completely neutralizing concentration (CHO-K1 cells with PT toxin) [12] | Ab2 with Ab1/Ab2 without Ab1 [13] | Ab2 with Ab1/Ab2 without Ab1 [14] |
| --- | --- | --- | --- | --- | --- | --- | --- | --- | --- | --- | --- | --- | --- | --- | --- | --- | --- | --- |
| B1 | 0.1 µg/mL | < 0.001 nM | < 1e-07 s⁻¹ | 337000 M⁻¹ s⁻¹ |  |  |  |  |  |  |  |  |  |  |  |  |  |  |
| B2 | 0.05 µg/mL | 0.2 nM | 9.18e-05 s⁻¹ | 459000 M⁻¹ s⁻¹ |  |  |  |  |  |  |  |  |  |  |  |  |  |  |
| B3 |  |  |  |  | 0.138 nM | 5.4e-05 s⁻¹ | 393000 M⁻¹ s⁻¹ | 32.6% | 15.4% | 85% | 103% | 86.8% | < 1 µg/mL | 79.8% | 77.6% | 1.56 µg/mL | 71.1% | 88% |

Read-outs that look alike come from different tables or passages of the source.
